Assay results as given in PMC6919601, “Identification of Plasmodium dipeptidyl aminopeptidase allosteric inhibitors by high throughput screening” (PLoS ONE, 2019).
Hit rate of the full screen: of about 110,000 compounds, about 230 (0.21%) showed an effect of 50% or more. This is one part of the list.

The compounds below were run against DPAP1 (Plasmodium falciparum, UniProt Q8IIJ9) (assay: primary screen, percent inhibition; read by cleavage of a fluorogenic dipeptide substrate; higher = more effect of the substance).
Chain of DPAP1 (Q8IIJ9 whole entry, looked up): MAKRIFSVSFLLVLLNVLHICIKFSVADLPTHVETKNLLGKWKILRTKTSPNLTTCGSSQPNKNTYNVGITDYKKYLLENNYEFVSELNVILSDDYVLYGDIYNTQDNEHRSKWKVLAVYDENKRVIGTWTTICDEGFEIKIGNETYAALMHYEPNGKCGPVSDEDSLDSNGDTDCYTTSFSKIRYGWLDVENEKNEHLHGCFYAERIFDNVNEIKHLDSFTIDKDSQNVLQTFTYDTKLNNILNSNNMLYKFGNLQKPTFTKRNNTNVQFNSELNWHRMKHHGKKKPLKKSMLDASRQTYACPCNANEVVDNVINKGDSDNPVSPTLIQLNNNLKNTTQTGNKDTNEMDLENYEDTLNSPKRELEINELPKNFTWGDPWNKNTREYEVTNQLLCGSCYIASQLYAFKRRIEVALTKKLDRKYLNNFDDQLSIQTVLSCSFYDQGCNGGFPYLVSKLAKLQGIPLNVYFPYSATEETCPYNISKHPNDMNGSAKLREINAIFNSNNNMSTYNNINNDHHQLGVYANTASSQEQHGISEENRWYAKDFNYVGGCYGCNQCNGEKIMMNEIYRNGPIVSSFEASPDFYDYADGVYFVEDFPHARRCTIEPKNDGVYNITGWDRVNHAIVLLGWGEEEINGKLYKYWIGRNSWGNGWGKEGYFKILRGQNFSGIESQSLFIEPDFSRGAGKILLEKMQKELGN
Set-up: species or system P. falciparum D10 trophozoite lysates; single well
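Also: 30 min substrate incubation versus DMSO and 10 µM JCP410 controls.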

Point of comparison: c1cncc(CSc2ccc(-c3cccs3)nn2)c1, “% Inhibition @ 10 uM” value 1.68%. Against it:
- CSc1ncc(Cl)c(C(=O)Nc2nnc(SC/C=C/c3ccccc3)s2)n1 — higher, 5.29%
- OCCNCc1cc(Cl)ccc1OCc1ccccc1 — higher, 4.44%
- O=C(Nc1nc2c(s1)CCCC2)c1ccc(-c2ccccc2)cc1 — higher, 2.79%
- Cc1ccccc1C(=O)N1CCN(c2nc(-c3ccccc3)cs2)CC1 — higher, 2.99%
- Cc1ccc(Cn2nnc3c(=O)n(CC(=O)NCC4CCCO4)cnc32)cc1 (stereo not drawn) — lower, -7.71%
- Cc1ccc(OCC(O)CNC(C)(C)C)cc1C (stereo not drawn) — lower, -3.94%
- Cc1sc(C2C(C#N)=C(N)OC3=C2C(=O)CC(C)(C)C3)cc1COc1ccc(F)cc1Cl (stereo not drawn) — higher, 4.33%
- CN1CCN(C(=O)c2cc3nc(-c4cccs4)cc(C(F)(F)F)n3n2)CC1 — higher, 1.72%
- CC1=C(C(=O)Nc2ccccc2)C(c2ccc(C)o2)n2c(s/c(=C/c3c(C)nn(C)c3C)c2=O)=N1 (stereo not drawn) — higher, 4.05%
- CC(NC(=O)CN(C)S(=O)(=O)c1cccc2nsnc12)c1ccccc1 (stereo not drawn) — higher, 2%
- COc1ccc(CCNC(=O)c2nn(C)c3c2CS(=O)(=O)c2ccccc2-3)cc1OC — higher, 5.82%
- Cc1ccc(N(C)S(=O)(=O)c2ccc(Cl)cc2)cc1 — lower, 0.345%
- Cc1ccc(N2CCN(C(=O)NC34CC5CC(CC(C5)C3)C4)CC2C)cc1 (stereo not drawn) — lower, 0.35%
- C=C(C)CNC(=S)Nc1ccc(Br)cc1 — lower, 0.634%
- CC(C)C[C@H](NC(=O)c1cccc(-c2ccc(S(N)(=O)=O)cc2)c1)C(=O)NCC#N — lower, -8.81%
- COCCCN1C2=C(C(=O)CC(C)(C)C2)C(c2ccccc2OC)C2=C1CC(C)(C)CC2=O — lower, -3.41%
- COC(=O)c1ccc(C2C3=C(O)CCCC3=NC(C)=C2C(=O)OCc2ccccc2)cc1 (stereo not drawn) — higher, 4.1%
- CCCN1CCC(N2CCN(c3ccccn3)CC2)CC1 — lower, 1.57%
- O=C(CSc1ccc(-c2cccs2)nn1)NCc1ccc2c(c1)OCO2 — higher, 3.02%
- COC(=O)c1cc(S(=O)(=O)N2CCCN(Cc3ccc(F)cc3)C2)cn1C — higher, 2.42%
- CCn1cc(C(=O)Nc2ccc(CC#N)cc2)c(C)n1 — higher, 1.93%
- COc1ccc(C(=O)NC(C)c2cc3c(cc2Br)OCCO3)cc1 (stereo not drawn) — higher, 5.24%
- O=C(CSc1nc2ccccc2s1)Nc1cccn2cc(-c3ccccc3)nc12 — lower, 0.815%
- Cc1cc(C)cc(NC(=O)CN(c2ccc(F)cc2)S(=O)(=O)c2ccccc2)c1 — lower, -6.48%
- O=C(Nc1nncs1)C1COc2ccccc2O1 (stereo not drawn) — lower, 0.9%
- CC1CCc2nc(NC(=O)CN3CCN(Cc4ccccc4)CC3)sc2C1 (stereo not drawn) — lower, -3.43%
- CC(C)(C)c1cc(C(=O)Nc2cccc(N)c2)cc(C(C)(C)C)c1 — lower, -1.45%
- CC1=C(C(=O)OCCc2ccccc2)C(c2ccccn2)C2=C(O)CCCC2=N1 (stereo not drawn) — lower, 1.26%
- COc1ccc(NC(=O)N2CCCCC2)cc1 — lower, -7.98%
- Cc1ccc(N/C=C(\C#N)C(=O)NC(=O)Cc2ccccc2)c(O)c1 — lower, -4.75%
- CCN(CC)CCN1CC(=O)C(c2nc3cc(C)ccc3[nH]2)=C1N — higher, 5.29%
- N#C/C(=C\c1cc2c(cc1Cl)OCO2)c1nc2ccccc2[nH]1 — lower, 0.76%
- CN(C)CCN(C(=O)CCc1ccccc1)c1nc2ccc(F)cc2s1 — lower, -0.0871%
- O=C(Nc1cc(-c2cccc(Cl)c2)no1)c1noc2c1CCCCC2 — higher, 2.09%
- CCCN1C(=O)CN(C2CCC(C)CC2)C(=O)C1c1ccc(F)cc1 (stereo not drawn) — lower, -5.8%
- Fc1ccccc1OCCn1ccnc1 — lower, -6.65%
- COC(=O)c1cc(S(=O)(=O)N2CCC(c3ccccc3)C2)c[nH]1 (stereo not drawn) — lower, 1.09%
- Oc1ccccc1CN1CCc2ccccc2C1 — lower, -1.41%
- CS(=O)(=O)c1ccc(N2CCN(c3ccccc3)CC2)c(S(=O)(=O)N2CCOCC2)c1 — lower, -5.63%
- c1ccc(-n2ncc3c(N4CCN(c5ccccn5)CC4)ncnc32)cc1 — higher, 7.5%
- COc1ccccc1C1C(C#N)=C(N)Oc2c1c(C)nn2-c1ccccc1 (stereo not drawn) — lower, 1.26%
- CSC1=NSC2=NC(=O)/C(=C\c3ccc(OCC(=O)O)cc3)C(=N)N12 — lower, -2.12%
- CCCCOc1ccc(C(=O)NCc2cn3ccsc3n2)cc1 — higher, 3.94%
- COc1ccccc1C(=O)Nc1nnc(S(=O)(=O)N2CCC(C)CC2)s1 — lower, -1.72%
- COCCO/C(O)=C1\C(C)=NC2=C(C(=O)CC(c3ccccc3OC)C2)C1c1cccc(O)c1 (stereo not drawn) — higher, 3.87%
- COc1cc(C2C(C#N)=C(C)N=C3CC(C)(C)CC(O)=C32)cc(Cl)c1O (stereo not drawn) — lower, -1.2%
- CCc1ccc2nc(Cl)c(C3NC(=O)c4ccccc4N3)cc2c1 (stereo not drawn) — lower, -6.57%
- O=C(NC1CCCCCC1)c1cc(S(=O)(=O)N2CCCCC2)c[nH]1 — lower, -3.47%
- O=C(NCc1ccco1)c1cccnc1Cl — lower, -0.48%
- COc1ccccc1C(=O)Nc1nc2nc(C)c(Cl)c(C)n2n1 — higher, 3.66%
- CCCC1=C(C(=O)OCC)C(c2ccc(CC)cc2)C(C#N)=C(N)O1 (stereo not drawn) — lower, -3.79%
- O=C(Nc1ccc(-c2nc3cc(NC(=O)C(F)(F)F)ccc3[nH]2)cc1)C(F)(F)F — lower, 0.912%
- Cn1cccc1Cc1nnc(SCC(=O)NCc2ccco2)n1C — higher, 2.5%
- CC(C)C[C@H](NC(=O)OCc1ccccc1)C(=O)NC(C#N)CC(C)CC(C)(C)C (stereo partly drawn) — lower, -6.46%
- CCN(CC)CCn1c2ccccc2n2c(C(=O)OC)c(C)nc12 — higher, 2%
- Clc1ccc(N2CCN(C3CCC(c4ccccc4)CC3)CC2)cc1 (stereo not drawn) — lower, -2.95%
- CCOc1ccccc1N1CCN(Cc2c(F)cccc2Cl)CC1 — lower, -1.78%
- COc1ccc(C(=O)Nc2sc3c(c2C(N)=O)CCCC3)c(OC)c1 — higher, 5.39%
- CC(C)(C)C1=CC(=O)c2c(ccc(C(C)(C)C)c2O)C1=O — higher, 3.72%
- COc1ccc(-c2cc(C(=O)N3CCCCCC3)no2)cc1 — lower, 0.723%
- Cc1ccc(S(=O)(=O)N(CC(=O)Nc2ccccc2)Cc2ccc(Cl)cc2)cc1 — lower, -1.36%
- CCC(C)NS(=O)(=O)c1ccc(OCC(=O)Nc2ccc(F)cc2F)cc1 (stereo not drawn) — lower, 1.17%
